“And” between values parts separate entries of the source, which are not always exact repeats. Equal values may be shown once. The whole screen tested about 350,000 compounds, of which about 9,900 (2.8%) were called active. This list was built around the results that the source calls inconclusive (neither active nor inactive); the mix of calls is not that of the screen. The call rests on the fitted dose curve; in most records, active means well fitted activation curve with a large enough effect; inconclusive means small, poorly fitted or top-dose-only effect; inactive means no such curve, though single readings can be large or run the other way. Where the call is inconclusive, the potency comes from a doubtful curve fit.
Assay: A quantitative high throughput screen for small molecules that induce DNA re-replication in MCF 10a normal breast cells. Further: nearly all actives have a fitted effect of over 50% in size. On activity, positive = re-replication: % of control where 0% means no effect.
Details: MCF 10A DNA re-replication, Hoechst nuclear intensity, 48 h; activity, positive = re-replication: at 46.1 µM (top of the series)
Potency means the concentration at half of the fitted maximal effect; tags describe the fitted curve by direction and shape.

Structure (SMILES)	Potency	activity, positive = re-replication
COc1ccc(Nc2nc3cc(C)ccc3cc2C#N)c(OC)c1	inconclusive: 0.731 µM [activator, full curve, poor fit]	
Cc1nn(CC(=O)N/N=C/c2ccc(F)cc2)c(C)c1[N+](=O)[O-]	inconclusive: 6.51 µM [activator, single point]	
CC(=O)Nc1cccc(-c2nc3ccc(NC(C)=O)cc3[nH]2)c1	inactive	
COc1ccccc1N1CCN(C(=O)c2ccc(Cl)c(S(=O)(=O)N3CCCC3)c2)CC1	inconclusive: 20.6 µM [activator, partial curve, poor fit]	
COc1ccc(-c2nn(-c3ccccc3)cc2/C=N/NC(=O)c2cccc(S(=O)(=O)Nc3ccccc3OC)c2)cc1	inactive	
CCN(CC)CCNC(=O)c1cc(-c2ccc(Br)s2)nc2ccccc12	inconclusive: 20.6 µM [activator, single point]	
COc1ccc(N=c2oc3c(OC)cccc3cc2C(=O)NCc2ccco2)cc1OC	inconclusive: 5.17 µM [activator, full curve, poor fit]	
Cc1ccc2c(c1)S(=O)(=O)N(C)C(c1ccccc1)=C2	inconclusive: 14.6 µM [activator, partial curve, poor fit]	
Oc1ccc(N2CCN(C(=S)NCc3ccccc3)CC2)cc1	inconclusive: 0.651 µM [activator, full curve]	
CC(=O)c1ccc(OCC(=O)Nc2cccc(C(=O)Nc3c(C)n(C)n(-c4ccccc4)c3=O)c2)cc1	inactive	
Cc1cnc(C(=O)Nc2nnc(C)s2)cn1	inactive	
Nc1ccc2nc(SCC(=O)Nc3ccc(N4CCOCC4)c(Cl)c3)sc2c1	inconclusive: 18.4 µM [activator, single point]	
O=Cc1ccccc1C=O	inconclusive: 13.3 µM [activator, full curve]	
O=C(c1cccc(S(=O)(=O)N2CCCCC2)c1)N1CCN(S(=O)(=O)c2ccc(F)cc2)CC1	inactive	
O=S(=O)(c1ccccc1)N1CCN=C1SCc1cccc(Cl)c1	inconclusive: 23.1 µM [activator, partial curve]	
CCOC(=O)C1=C(C)NC(C)=C(C(=O)OCC)C1/C=C/c1ccccc1OC	inconclusive: 23.1 µM [activator, single point]	
COc1ccc(-c2c(-c3ccc(S(C)(=O)=O)cc3)sc3ccc(OC)cc23)cc1	inconclusive: 23.1 µM [activator, single point]	
CC(C)NC(=O)CSc1nc(-c2cccs2)cc(-c2ccccc2)c1C#N	inconclusive: 2.59 µM [activator, full curve, poor fit]	
CCCCCCCCCCCCCCCC[n+]1ccc(C(N)=O)cc1	inconclusive: 13 µM [activator, partial curve]	
O=c1oc(-c2ccco2)nc2sc3c(c12)CCCC3	inconclusive: 11.6 µM [activator, partial curve]	
COc1ccc(C(=O)OCCN2C(=O)c3ccccc3C2=O)cc1	inactive	
N#Cc1cc(C#N)c(N2CCN(c3cccc(Cl)n3)CC2)nc1N	active: 3.26 µM	

Structure (SMILES)	Potency	activity, positive = re-replication
CCOC(=O)N1CCN(Cc2c(NC(=O)c3ccco3)sc(C)c2C)CC1	inconclusive: 14.1 µM [activator, partial curve, poor fit]	
CC(NC(=O)C(C)N1CCN(S(=O)(=O)c2ccccc2)CC1)c1ccccc1 (stereo not given)	inactive	
Cc1nc2cc(C(F)(F)F)ccc2n1C1CCN(CC(=O)NC(C)(C)C)CC1	inconclusive: 29.1 µM [activator, partial curve, poor fit]	
C=C1[C@@H]2CC[C@H](C2)C1(C)C	inactive	
CCC(=O)NC(=S)Nc1ccc(NC(=O)c2ccc(OC)cc2)cc1	inconclusive: 0.058 µM [activator, full curve, poor fit]	
Cc1ccc(Nc2nc(N)c([N+](=O)[O-])c(NCc3ccco3)n2)cc1C	inconclusive: 29.1 µM [activator, single point]	
Cc1cc(C(=O)CN2CCC(C)CC2)c(C)n1-c1ccccc1F	inconclusive: 29.1 µM [activator, single point]	
COc1ccc(NC(=O)c2cccnc2)c(OC)c1	inconclusive: 0.092 µM [activator, full curve, poor fit]	
CCOc1ccc(-c2n[nH]c(C)c2Oc2ccccc2OC)c(O)c1	inconclusive: 3.26 µM [activator, full curve, poor fit]	
COCCN1CCN(Cc2cn(C)nc2-c2ccc(Oc3ccccc3)cc2)CC1	inconclusive: 23.1 µM [activator, single point]	
CCOC(=O)[C@@H]1[C@H]2COc3ccccc3[C@@H]2N2C(=O)N(c3ccccc3)C(=O)[C@@]12C	inactive	
CCCN(CCC)CCNC(=O)c1cc2c(-c3ccc(Cl)cc3)nn(C)c2s1	inconclusive: 13 µM [activator, partial curve, poor fit]	
CCOc1ccc2nc(NC(=O)CSc3nc4c(c(=O)n(C)c(=O)n4C)n3C(C)C)sc2c1	inconclusive: 18.4 µM [activator, single point]	
O=C(Cc1cccc(NC(=O)C2CCN(S(=O)(=O)c3cccc([N+](=O)[O-])c3)CC2)c1)Nc1cccc(C(=O)N2CCCCC2)c1	inconclusive: 2.91 µM [activator, partial curve, poor fit]	
COc1ccc(OC)c(C(=O)NC(CC(N)=O)c2ccc(N3CCN(c4ccccc4)CC3)c([N+](=O)[O-])c2)c1 (stereo not given)	inconclusive: 16.4 µM [activator, partial curve, poor fit]	
CC(C)C[C@H]1CN([C@@H](CC(C)C)CN2CCC[C@@H]2CN2C(=O)C(=O)NC[C@@H]2Cc2ccccc2)C(=O)C(=O)N1CC1CCCCC1	inconclusive: 32.6 µM [activator, partial curve, poor fit]	
COCCNC(=O)C1CCN(Cc2cccc(OCc3ccccc3)c2)CC1	inconclusive: 4.11 µM [activator, full curve, poor fit]	
COC(=O)c1ccc(Cn2cnc3c(N)ncnc32)cc1	inactive	
Cc1ccc(Cn2nc(C)c(NC(=O)CCCn3nc([N+](=O)[O-])c(Cl)c3C)c2C)cc1	inactive	
C=CCNc1nc2ccccc2nc1NS(=O)(=O)c1ccc(Br)cc1	inconclusive: 16.4 µM [activator, single point]	
COc1ccc(S(=O)(=O)N(C)C[C@H]2Oc3ccc(NS(=O)(=O)c4cccs4)cc3C(=O)N([C@H](C)CO)C[C@@H]2C)cc1	active: 3.26 µM	
c1ccc(-c2nc3ccccc3[nH]2)cc1	inactive	

Structure (SMILES)	Potency	activity, positive = re-replication
Oc1c(Cl)cc(Cl)c2c1NCCC2	inconclusive: 20.6 µM [activator, single point]	
CC(C(=O)N(C)Cc1cccc(F)c1)N1CCN(S(=O)(=O)c2ccc3c(c2)OCCCO3)CC1 (stereo not given)	inactive	
COc1cc(C(=O)OCCCN2CCCN(CCCOC(=O)c3cc(OC)c(OC)c(OC)c3)CC2)cc(OC)c1OC	inactive and inconclusive: 31.2 µM [activator, partial curve, poor fit] and inconclusive: 25.9 µM [activator, single point]	
COC(=O)C1=C(C)NC(C)=C([N+](=O)[O-])C1c1ccccc1C(F)(F)F (stereo not given)	inactive and inconclusive: 18.4 µM [activator, single point]	
CC(/C=C/c1ccccc1)=N\NC(=O)C1CC1(C)c1ccccc1 (stereo not given)	inconclusive: 29.1 µM [activator, single point]	
COc1cc(/C=C/c2ccc(/C=C/c3cc(OC)c(OC)c(OC)c3)cc2)cc(OC)c1OC	inconclusive: 2.91 µM [activator, full curve, poor fit]	
COCCNC(=O)c1cc2c(s1)-c1ccc(Cl)cc1SC2	inconclusive: 29.1 µM [activator, single point]	
CC1=C(C(=O)Nc2ccccc2C)C(c2ccc(C)o2)C2=C(CCCC2=O)N1 (stereo not given)		inconclusive: 146% [activator]
CC(=O)Nc1ccc(NC(=O)CN(c2cccc(C(C)=O)c2)S(C)(=O)=O)cc1	inconclusive: 29.1 µM [activator, single point]	
CCCC/C(O)=C1\C(=O)CC(C)(C)CC1=Nc1ccc(OC)cc1	inconclusive: 25.9 µM [activator, partial curve, poor fit]	
C/C(=N\OCC(=O)NC12CC3CC(CC(C3)C1)C2)c1cc2ccccc2o1	active: 20.6 µM	
O=C(c1ccco1)N1CCN(c2nc(C(F)(F)F)nc3c2nnn3Cc2ccccc2)CC1	inactive	
Cc1cc(C)cc(C(=O)Nc2ccc(NC(=O)c3cccs3)cc2)c1	inconclusive: 32.6 µM [activator, partial curve, poor fit]	
Nc1cccc(NC(=O)c2cccs2)c1	inactive	
COc1cc2[nH]c(=S)n(Cc3ccccc3)c(=O)c2cc1OC	inconclusive: 23.1 µM [activator, single point]	
O=C(CN1C(=O)C(=O)N(Cc2ccco2)C1=O)NC1CCCCC1	inactive	
O=C(c1ccco1)N1CCC(c2nc3c(nnn3Cc3ccccc3Cl)c(=O)[nH]2)CC1	inactive	
C#CCCc1cscc1/C=[N+](\[O-])c1ccc(C(=O)OCC)cc1	inactive	
CCC(=O)c1ccc(OCC(=O)N(CC)CC2COc3ccccc3O2)cc1 (stereo not given)	inactive	
Cc1cc(F)ccc1NS(=O)(=O)c1c(C(=O)N2CCOCC2)c(C)n(C)c1C	inactive	
Cc1cc(C(C)(C)C)ccc1OCCCCN1CCCC1	active: 13 µM	
